Data as given in patent US11618753B2 (priority 2018, dated 2023).

tested on: MLKL phosphorylation, HT29-L23 human colorectal adenocarcinoma cells; assay: cells; conditions: read-out: pMLKL HCS Cell Assay (IC50, uM)

`COc1ncc(-c2cc(C(F)(F)F)c3c(N)ncnn23)cc1C(=O)NC1CN(C(C)c2cc(F)nc(F)c2)C[C@@H]1F` (stereo partly drawn) [Example 1388, 5-[4-amino-5-(trifluoromethyl)-pyrrolo[2,1-f][1,2,4]triazin-7-yl]-N-[(3R,4S)-1-[1-(2,6-difluoropyridin-4-yl)ethyl]-4-fluoropyrrolidin-3-yl]-2-methoxypyridine-3-carbox-amide] was tested. Which IC50 did it give?
The IC50 was 0.0049 µM.

For `COc1ncc(-c2cc(CN3CC(N)C3)c3c(N)ncnn23)cc1C(=O)N[C@@H]1CN(C(=O)C2CC(F)(F)C2)C[C@@H]1F` [Example 497, 5-{4-amino-5-[(3-aminoazetidin-1-yl)methyl]pyrrolo[2,1-f][1,2,4]triazin-7-yl]-N-[(3R,4S)-1-(3,3-difluorocyclobutanecarbonyl)-4-fluoropyrrolidin-3-yl]-2-methoxypyridine-3-carboxamide], which IC50 is on record?
The IC50 was 0.286 µM.

For `Nc1ncnn2c(-c3cc(C(=O)N[C@@H]4CN(C(=O)C5(F)CCC5)C[C@@H]4F)c(F)cc3Cl)cc(C(F)(F)F)c12` [Example 521, 5-[4-amino-5-(trifluoromethyl)pyrrolo[2,1-f][1,2,4]triazin-7-yl]-4-chloro-2-fluoro-N-[(3R,4S)-4-fluoro-1-(1-fluorocyclobutanecarbonyl)pyrrolidin-3-yl]benzamide], which IC50 is on record?
The IC50 was 0.044 µM.

Which IC50 does the source give for `CCC(O)(CCNC(=O)c1cc(-c2cc(C(F)(F)F)c3c(N)ncnn23)cnc1OC)c1ccc(Cl)cc1` (stereo not shown) [Example 147, 5-[4-amino-5-(trifluoromethyl)pyrrolo[2,1-f][1,2,4]triazin-7-yl]-N-[3-(4-chlorophenyl)-3-hydroxypentyl]-2-methoxypyridine-3-carboxamide] here?
The IC50 was 0.201 µM.

Which IC50 does the source give for `COc1ncc(-c2cc(CN3CCC(F)(F)CC3)c3c(N)ncnn23)cc1C(=O)N[C@@H]1CN(C(=O)c2cc(F)cc(F)c2)C[C@@H]1F` [Example 1267, 5-{4-amino-5-[(4,4-difluoropiperidin-1-yl)methyl]pyrrolo[2,1-f][1,2,4]triazin-7-yl}-N-[(3R,4S)-1-(3,5-difluorobenzoyl)-4-fluoropyrrolidin-3-yl]-2-methoxypyridine-3-carboxamide] here?
Its IC50 is 0.0011 µM.

For `Cc1ccc(-c2cc(C(F)(F)F)c3c(N)ncnn23)cc1C(=O)N[C@@H]1CN(C(=O)C(C)(C)O)C[C@@H]1F` [Example 988, 5-[4-amino-5-(trifluoromethyl)pyrrolo[2,1-f][1,2,4]triazin-7-yl]-N-[(3R,4S)-4-fluoro-1-(2-hydroxy-2-methylpropanoyl)pyrrolidin-3-yl]-2-methylbenzamide], which IC50 is on record?
Its IC50 is 0.018 µM.

Which IC50 does the source give for `[2H]C([2H])([2H])Oc1ncc(-c2cc(CN3CC(F)(F)C3)c3c(N)ncnn23)cc1C(=O)N[C@@H]1CN(S(=O)(=O)CC(C)C)C[C@@H]1F` [Example 1289, 5-{4-amino-5-[(3,3-difluoroazetidin-1-yl)methyl]pyrrolo[2,1-f][1,2,4]triazin-7-yl}-N-[(3R,4S)-4-fluoro-1-(2-methylpropanesulfonyl)pyrrolidin-3-yl]-2-(methoxy-d3)nicotinamide] here?
Its IC50 is 0.00049 µM.

Which IC50 does the source give for `COc1cc(C(=O)N[C@@H]2CN(C(=O)c3ccccc3F)C[C@@H]2F)cc(-c2cc(C(F)(F)F)c3c(N)ncnn23)c1` [Example 572, 3-[4-amino-5-(trifluoromethyl)pyrrolo[2,1-f][1,2,4]triazin-7-yl]-N-[(3R,4S)-4-fluoro-1-(2-fluorobenzoyl)pyrrolidin-3-yl]-5-methoxybenzamide] here?
The IC50 was 0.0028 µM.

With `Nc1ncnn2c(-c3cc(F)cc(C(=O)N[C@@H]4CN(C(=O)c5ccccc5F)C[C@@H]4F)c3)cc(C(F)(F)F)c12` [Example 607, 3-[4-amino-5-(trifluoromethyl)pyrrolo[2,1-f][1,2,4]triazin-7-yl]-5-fluoro-N-[(3R,4S)-4-fluoro-1-(2-fluorobenzoyl)pyrrolidin-3-yl]benzamide] as the compound, how does the IC50 read?
Its IC50 is 0.0084 µM.

`COc1ncc(-c2cc(CO)c3c(N)ncnn23)cc1C(=O)Nc1cnn(Cc2ccccc2)c1` [Example 51, 5-(4-amino-5-(hydroxymethyl)pyrrolo[2,1-f][1,2,4]triazin-7-yl)-N-(1-benzyl-1H-pyrazol-4-yl)-2-methoxynicotinamide] was tested. Which IC50 did it give?
Its IC50 is 0.0037 µM.

With `CCOc1ccc(-c2cc(C(F)(F)F)c3c(N)ncnn23)cc1C(=O)N[C@@H]1CN(C(=O)CC(F)(F)F)C[C@@H]1F` [Example 1097, 5-[4-amino-5-(trifluoromethyl)pyrrolo[2,1-f][1,2,4]triazin-7-yl]-2-ethoxy-N-[(3R,4S)-4-fluoro-1-(3,3,3-trifluoropropanoyl)pyrrolidin-3-yl]benzamide] as the compound, how does the IC50 read?
The IC50 was 0.31 µM.

For `COc1ncc(-c2cc(C(F)(F)F)c3c(N)ncnn23)cc1C(=O)N[C@@H]1CN(C(=O)c2ccnc(C)c2)C[C@@H]1F` [Example 313, 5-[4-amino-5-(trifluoromethyl)pyrrolo[2,1-f][1,2,4]triazin-7-yl]-N-[(3R,4S)-4-fluoro-1-(2-methylpyridine-4-carbonyl)pyrrolidin-3-yl]-2-methoxy-pyridine-3-carboxamide], which IC50 is on record?
Its IC50 is 0.065 µM.

With `Cc1ccc(-c2cc(C(F)(F)F)c3c(N)ncnn23)cc1C(=O)N[C@@H]1CN(C(=O)c2c(F)cccc2Cl)C[C@@H]1F` [Example 1041, 5-[4-amino-5-(trifluoromethyl)pyrrolo[2,1-f][1,2,4]triazin-7-yl]-N-[(3R,4S)-1-(2-chloro-6-fluorobenzoyl)-4-fluoropyrrolidin-3-yl]-2-methylbenzamide] as the compound, how does the IC50 read?
The IC50 was 0.0015 µM.

How did the IC50 turn out when `Cc1cc(F)c(-c2cc(C(F)(F)F)c3c(N)ncnn23)cc1C(=O)N[C@@H]1CN(C(=O)c2ccncc2)C[C@@H]1F` [Example 829, 5-[4-amino-5-(trifluoromethyl)pyrrolo[2,1-f][1,2,4]triazin-7-yl]-4-fluoro-N-[(3R,4S)-4-fluoro-1-(pyridine-4-carbonyl)pyrrolidin-3-yl]-2-methylbenzamide] was run?
The IC50 was 0.0072 µM.

Which IC50 does the source give for `Cc1cc(F)c(-c2cc(CN3CCC(F)(F)CC3)c3c(N)ncnn23)cc1C(=O)N[C@@H]1CN(C(=O)C2CC2(F)F)C[C@@H]1F` (stereo partly drawn) [Example 1655, 5-{4-amino-5-[(4,4-difIuoropiperidin-1-yl)methyl]pyrrolo[2,1-f][1,2,4]triazin-7-yl}-N-[(3R,4S)-1-(2,2-difluorocyclopropanecarbonyl)-4-fluoropyrrolidin-3-yl]-4-fluoro-2-methylbenzamide] here?
Its IC50 is 0.0013 µM.

How did the IC50 turn out when `COc1ncc(-c2cc(C(F)(F)F)c3c(N)ncnn23)cc1C(=O)NC[C@H]1C[C@@H]1c1cc(C(F)(F)F)cc(C(F)(F)F)c1` [Example 118, 5-[4-amino-5-(trifluoromethyl)pyrrolo[2,1-f][1,2,4]triazin-7-yl]-N-{[(1S,2S)-2-[3,5-bis(trifluoromethyl)phenyl]cyclopropyl]methyl}-2-methoxypyridine-3-carboxamide] was run?
Its IC50 is 0.402 µM.

With `Cc1cc(F)c(-c2cc(C(F)(F)F)c3c(N)ncnn23)cc1C(=O)N[C@@H]1CN(C(=O)c2ccc(F)c(F)c2)C[C@@H]1F` [Example 814, 5-[4-amino-5-(trifluoromethyl)pyrrolo[2,1-f][1,2,4]triazin-7-yl]-N-[(3R,4S)-1-(3,4-difluorobenzoyl)-4-fluoropyrrolidin-3-yl]-4-fluoro-2-methylbenzamide] as the compound, how does the IC50 read?
Its IC50 is 0.0043 µM.

`Cc1ccc(-c2cc(C(F)(F)F)c3c(N)ncnn23)cc1C(=O)N[C@@H]1CN(C(=O)c2cn(C3CC3)nn2)C[C@@H]1F` [Example 1030, 5-[4-amino-5-(trifluoromethyl)pyrrolo[2,1-f][1,2,4]triazin-7-yl]-N-[(3R,4S)-1-(1-cyclopropyl-1H-1,2,3-triazole-4-carbonyl)-4-fluoropyrrolidin-3-yl]-2-methylbenzamide] was tested. Which IC50 did it give?
The IC50 was 0.367 µM.

`COc1cc(C(=O)N[C@@H]2CN(C(=O)CC(C)(O)C(F)(F)F)C[C@@H]2F)cc(-c2cc(C(F)(F)F)c3c(N)ncnn23)c1` (stereo partly drawn) [Example 579, 3-[4-amino-5-(trifluoromethyl)pyrrolo[2,1-f][1,2,4]triazin-7-yl]-N-[(3R,4S)-4-fluoro-1-(4,4,4-trifluoro-3-hydroxy-3-methylbutanoyl)pyrrolidin-3-yl]-5-methoxybenzamide] was tested. Which IC50 did it give?
The IC50 was 0.024 µM.

`COc1ncc(-c2cc(CN3CC(F)(F)C3)c3c(N)ncnn23)cc1C(=O)N[C@@H]1CN(C(=O)C2CC(F)(F)C2)C[C@@H]1F` [Example 489, 5-{4-amino-5-[(3,3-difluoroazetidin-1-yl)methyl]pyrrolo[2,1-f][1,2,4]triazin-7-yl}-N-[(3R,4S)-1-(3,3-difluorocyclobutanecarbonyl)-4-fluoropyrrolidin-3-yl]-2-methoxypyridine-3-carboxamide] was tested. Which IC50 did it give?
Its IC50 is 0.00076 µM.

With `Cc1ccc(-c2cc(C(F)(F)F)c3c(N)ncnn23)cc1C(=O)N[C@@H]1CN(C(=O)c2cccc(F)c2)C[C@@H]1F` [Example 1003, 5-[4-amino-5-(trifluoromethyl)pyrrolo[2,1-f][1,2,4]triazin-7-yl]-N-[(3R,4S)-4-fluoro-1-(3-fluorobenzoyl)pyrrolidin-3-yl]-2-methylbenzamide] as the compound, how does the IC50 read?
The IC50 was 0.0038 µM.

With `COc1ncc(-c2cc(CN3CCC(F)(F)C3)c3c(N)ncnn23)cc1C(=O)N[C@@H]1CN(C(=O)[C@@](C)(O)C(F)(F)F)C[C@@H]1F` [Example 1589, 5-{4-amino-5-[(3,3-difluoropyrrolidin-1-yl)methyl]pyrrolo[2,1-f][1,2,4]triazin-7-yl}-N-[(3R,4S)-4-fluoro-1-[(2R)-3,3,3-trifluoro-2-hydroxy-2-methylpropanoyl]pyrrolidin-3-yl]-2-methoxypyridine-3-carboxamide] as the compound, how does the IC50 read?
The IC50 was 0.00029 µM.

How did the IC50 turn out when `COc1ncccc1C(=O)N1C[C@H](F)[C@H](NC(=O)c2cc(-c3cc(C(F)(F)F)c4c(N)ncnn34)ccc2C)C1` [Example 1027, 5-[4-amino-5-(trifluoromethyl)pyrrolo[2,1-f][1,2,4]triazin-7-yl]-N-[(3R,4S)-4-fluoro-1-(2-methoxypyridine-3-carbonyl)pyrrolidin-3-yl]-2-methylbenzamide] was run?
Its IC50 is 0.168 µM.

Which IC50 does the source give for `COCCC(=O)N1C[C@H](F)[C@H](NC(=O)c2cc(-c3cc(C(F)(F)F)c4c(N)ncnn34)cnc2OC)C1` [Example 340, 5-[4-amino-5-(trifluoromethyl)pyrrolo[2,1-f][1,2,4]triazin-7-yl]-N-[(3R,4S)-4-fluoro-1-(3-methoxypropanoyl)pyrrolidin-3-yl]-2-methoxypyridine-3-carboxamide] here?
Its IC50 is 0.217 µM.

With `CCC(=O)N1C[C@H](F)[C@H](NC(=O)c2cc(-c3cc(C(F)(F)F)c4c(N)ncnn34)cnc2OC)C1` [Example 310, 5-[4-amino-5-(trifluoromethyl)pyrrolo[2,1-f][1,2,4]triazin-7-yl]-N-[(3R,4S)-4-fluoro-1-propanoylpyrrolidin-3-yl]-2-methoxypyridine-3-carboxamide] as the compound, how does the IC50 read?
Its IC50 is 0.294 µM.
